Test results from PubChem BioAssay AID588855 (National Center for Advancing Translational Sciences (NCATS), 2011).
“And” between values parts separate entries of the source, which are not always exact repeats. Equal values may be shown once. The campaign covered roughly 410,000 compounds. About 5,000 (1.2%) were called active. The shares of active, inactive and inconclusive entries below differ from those in the screen. Calls follow the shape of the dose curve; as a rule, active = well fitted inhibition curve with a large enough effect; inconclusive = small, poorly fitted or top-dose-only effect; inactive = no such curve, though single readings can be large or run the other way. Potencies beside an inconclusive call are fits to weak or partial responses and may not hold up.

Test: qHTS for Inhibitors of TGF-b; also: nearly all actives have a fitted effect of over 65% in size
Conditions: HepG2 CAGA-GFP TGF-b/SMAD3 reporter, GFP fluorescence, 18 h, TGF-beta stimulated, 500 pg/mL final; series mostly up to 46.1 µM; activity, negative = inhibition: at the top concentration
In short: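 HEPG2 CAGA-GFP cells (1000/well, DMEM with 1% FBS) were pre-incubated 2 h at 37 degrees C, given compound by pin tool, then stimulated with TGF-beta at 500 pg/mL final for 18 h before per-cell GFP fluorescence imaging.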
% is scaled to controls: 0 for no effect and ±100 for the full control effect; potency is read from the fitted curve at half-maximal effect; tags tell the direction and shape of the fitted curve.

| SMILES | activity, negative = inhibition | Potency |
| --- | --- | --- |
| CCc1ccccc1S(=O)(=O)Cc1ccc(C(=O)NCc2cccs2)o1 | inactive: 7.51% |  |
| O=C1N(c2ccc(Cl)cc2)C(c2ccc(Cl)cc2)N2CCCN12 (stereo not given) |  | inconclusive: 6.31 µM [inhibitor, single point] |
| CC(C)(C)OC(=O)NCCC(=O)N/N=C/c1ccc2ncccc2c1 | inactive: -3.85% |  |
| Cc1ccc(C)c(N2CCN(C(=O)CCCn3ncn4c(cc5occc54)c3=O)CC2)c1 |  | inconclusive: 20 µM [inhibitor, partial curve, poor fit] |
| CCOc1ccc(CNC(=O)CCn2nc(C)c3c(C)n(-c4ccccc4)nc3c2=O)cc1 | inactive: -6.5% |  |
| C=CCOC(/C=C/c1ccccc1)CC (stereo not given) |  | inconclusive: 35.5 µM [inhibitor, partial curve, poor fit] |
| COc1ccccc1NS(=O)(=O)c1ccc(N2CCOCC2)c(N)c1 |  | inconclusive: 15.8 µM [inhibitor, partial curve, poor fit] |
| CCN1CCN(Cc2ccc(NC(=O)c3ccc(C)c(NC(=O)c4nccn4C)c3)cc2C(F)(F)F)CC1 |  | inconclusive: 0.708 µM [inhibitor, partial curve, poor fit] |
| COC(=O)c1ccc(Cn2nc(-c3cc(C)ccc3C)ccc2=O)cc1 | inactive: -0.84% |  |
| Cc1cc(NC(=S)NC(=O)CC(C)C)ccc1Br |  | inconclusive: 1.12 µM [inhibitor, full curve, poor fit] |
| CC(=O)Oc1c(C)c(OC(C)=O)c2c(c1C(C)=O)OC1CC(=O)C(C(C)=O)=C(O)C21C (stereo not given) | inactive: -1.17% |  |
| Cc1cc(C)nc(NNS(=O)(=O)c2ccc(F)c(Cl)c2)n1 |  | inconclusive: 20 µM [inhibitor, single point] |
| CC(/C=N/NC(=O)c1nnn(-c2nonc2N)c1C(C)C)=C\c1ccccc1 |  | active: 15.8 µM |
| O=C(c1ccc(CN2CCc3ccccc3C2)cc1)N1CCN(c2ccc(F)cc2)CC1 |  | inconclusive: 7.08 µM [inhibitor, full curve] |
| COc1ccc(CN2CCN(C(=O)c3ccc(S(=O)(=O)N4CCCCCC4)cc3)CC2)cc1F |  | inconclusive: 3.16 µM [inhibitor, partial curve, poor fit] |
| N#C/C(=C\c1ccc(O)c(O)c1)S(=O)(=O)c1ccccc1 | inactive: -4.3% |  |
| COc1ccc(N2C(=O)CCSC23C(=O)N(Cc2ccc(F)cc2)c2ccccc23)cc1Cl (stereo not given) | inactive: 0% |  |
| N#Cc1cc2c(nc1SCC(=O)NCc1ccc3c(c1)OCO3)CCCCC2 |  | inconclusive: 7.94 µM [inhibitor, partial curve] |
| Cc1c(C(=O)Nc2cccc(Cl)c2)oc2ccc(S(=O)(=O)N3CCOCC3)cc12 |  | inconclusive: 4.47 µM [inhibitor, partial curve, poor fit] |
| CCc1ccccc1NC(=O)Cn1c(=O)ccc2cc(S(=O)(=O)N3CCC(C)CC3)ccc21 |  | inconclusive: 15.8 µM [inhibitor, single point] |
| CSc1ccc(/C=C/C(=O)OCC(=O)N2CCN(S(=O)(=O)c3ccc(C)cc3C)CC2)cc1 | inactive: -15.8% |  |
| Cc1ccc(CCNC(=O)CN2N=C(c3ccc(C)cc3)CCC2=O)cc1 |  | inconclusive: 15.8 µM [inhibitor, single point] |

| SMILES | activity, negative = inhibition | Potency |
| --- | --- | --- |
| CCN(CC)C(=O)c1[nH]cnc1C(=O)N[C@@H](C)C(=O)OCc1ccccc1 |  | inconclusive: 12.6 µM [inhibitor, partial curve, poor fit] |
| Cc1cccc(N2CCN(S(=O)(=O)c3c(C)nc4scc(C)n4c3=O)CC2C)c1 (stereo not given) |  | inconclusive: 35.5 µM [inhibitor, single point] |
| C#CCOCCOCCOCCNc1nc(N2CCN(C(=O)[C@H](CCCCN)n3cc([C@@H](N)CO)nn3)CC2)nc(N2CCN(C(=O)[C@H](Cc3ccc(O)cc3)n3cc([C@@H](N)CC(C)C)nn3)CC2)n1 |  | inconclusive: 6.31 µM [inhibitor, single point] |
| Cc1ccc(OCCn2c(COc3ccc(Cl)cc3)nc3ccccc32)cc1 |  | inconclusive: 35.5 µM [inhibitor, single point] |
| CN(C)S(=O)(=O)c1ccc(-c2csc(N/N=C/c3ccc(O)cc3)n2)cc1 |  | inconclusive: 10 µM [inhibitor, partial curve, poor fit] |
| CCN1CCN(c2cc(C)c3cc(NC(=O)c4cc(OC)cc(OC)c4)ccc3n2)CC1 |  | inconclusive: 25.1 µM [inhibitor, single point] and inconclusive: 35.5 µM [inhibitor, single point] |
| CCOc1cccc(C(=O)NC(=S)Nc2cccc(NC(=O)c3ccccc3Cl)c2)c1 |  | inconclusive: 17.8 µM [inhibitor, single point] |
| c1ccc(Cn2nnnc2C(c2cccs2)N2CCc3ccccc3C2)cc1 (stereo not given) |  | inconclusive: 35.5 µM [inhibitor, single point] |
| Cc1ccc(S(=O)(=O)NCc2csc(-c3cccs3)n2)cc1 |  | inconclusive: 0.562 µM [inhibitor, full curve, poor fit] |
| COC(=O)c1cnn(-c2nc3c(C)cccc3s2)c1C | inactive: -20.9% |  |
| Clc1ccc(Cn2ncc3c(N4CCCCC4)ncnc32)c(Cl)c1 |  | inconclusive: 6.31 µM [inhibitor, single point] |
| Cc1nn(CC(=O)N2CCN(c3ccccc3)CC2)c(=O)c2cc3sccc3n12 |  | inconclusive: 35.5 µM [inhibitor, single point] |
| O=C(NCCN1CCN(C(=O)c2ccccc2Cl)CC1)C(=O)NCc1ccccc1 |  | inconclusive: 6.31 µM [inhibitor, single point] |
| CCOC(=O)C(CC)Sc1nnc(COc2ccc(C)cc2)n1-c1ccccc1 (stereo not given) | inactive: -10.7% |  |
| O=C(NCC(O)CO)c1ccc2[nH]c3ccccc3c2c1 (stereo not given) |  | inconclusive: 0.708 µM [inhibitor, partial curve, poor fit] |
| CCCn1c(SCC(=O)Nc2ccccc2OC)nnc1-c1ccco1 | inactive: 6.23% |  |
| CC1CCC(NC(=O)C2CCN(S(=O)(=O)c3cccc4nonc34)CC2)CC1 (stereo not given) | inactive: -11.7% |  |
| Cc1ccc2occ(-c3nn[nH]n3)c(=O)c2c1 |  | inconclusive: 35.5 µM [inhibitor, single point] |
| CCOc1cc(CNC(C)(C)CO)cc(Br)c1OCc1ccc(Cl)cc1Cl |  | inconclusive: 35.5 µM [inhibitor, single point] |
| O=C(CC1N=C2c3ccccc3N=C(SCc3ccccc3Cl)N2C1=O)NC1CCCCC1 (stereo not given) |  | inconclusive: 35.5 µM [inhibitor, single point] |
| COc1ccc(C(C)NC(=S)NCc2ccc(F)cc2)cc1 (stereo not given) |  | inconclusive: 15.8 µM [inhibitor, partial curve, poor fit] |
| COc1ccc(Cl)cc1-n1c(CCC(=O)O)ccc1-c1ccc(C)cc1 |  | inconclusive: 35.5 µM [inhibitor, single point] |

| SMILES | activity, negative = inhibition | Potency |
| --- | --- | --- |
| O=C(CCCC(=O)N(CC(=O)NC1CCCCC1)c1ccccc1F)Nc1ccccn1 | inactive: -5.48% |  |
| Cc1ccc(C)c(C(=O)N2CCC(c3nc4c(nnn4Cc4ccccc4)c(=O)[nH]3)CC2)c1 |  | active: 11.2 µM |
| CCOc1ccccc1N1CC(c2nc3ccccc3n2CCCCOc2ccccc2)CC1=O (stereo not given) |  | inconclusive: 3.55 µM [inhibitor, single point] |
| CCCS(=O)(=O)c1ccc(COC(=O)c2ccc(NC(C)=O)cc2)cc1 |  | inconclusive: 5.01 µM [inhibitor, partial curve] |
| Cc1ccc(CNc2c(C)c(C)nc3nncn23)cc1 | inactive: -12.3% |  |
| CC1Cc2cc(S(=O)(=O)CCC(=O)Nc3ccc(OC(F)(F)F)cc3)ccc2N1C(=O)C1CC1 (stereo not given) |  | inconclusive: 12.6 µM [inhibitor, partial curve, poor fit] |
| CC(C)(C)c1cc(C(=S)N2CCN(CCO)CC2)cc(C(C)(C)C)c1O | inactive: -27.7% |  |
| O=C(Cc1ccc(Cl)cc1Cl)Nc1ccncc1 |  | inconclusive: 11.2 µM [inhibitor, partial curve] |
| CC(C)NC(=S)NC1(C)CCS(=O)(=O)C1 (stereo not given) |  | inconclusive: 6.31 µM [inhibitor, partial curve, poor fit] |
| CN=C(Nc1ccc(Cl)cc1)c1ccc(C(F)(F)F)cc1 |  | inconclusive: 5.62 µM [inhibitor, single point] |
| N#Cc1cc(Cl)c(NCC2CCCO2)cc1C#N (stereo not given) | inactive: 7.04% |  |
| Cc1ccc(C)c(CN2C(=O)c3ccccc3S(=O)(=O)c3ccc(C(=O)N4CCN(Cc5ccccc5)CC4)cc32)c1 |  | inconclusive: 5.62 µM [inhibitor, single point] |
| COC(=O)C1=C(C)N(Cc2ccccc2)C(=NCc2cccc(C(F)(F)F)c2)N[C@H]1c1cccc(C(F)(F)F)c1 |  | active: 10 µM |
| C/C(=N\Nc1nccnc1Cl)c1c(F)c(F)c(F)c(F)c1F | inactive: 1.6% |  |
| COc1ccccc1N1C(=O)c2cccnc2C1=O | inactive: 1.6% |  |
| Cc1cc(C)c(NC(=O)CSc2nnc(SCC(=O)Nc3c(C)cc(C)cc3C)n2N)c(C)c1 | inactive: -12.8% |  |
| CCOC(=O)c1ccc(-c2ccc3ncnc(N(C)Cc4sccc4C)c3c2)o1 |  | inconclusive: 25.1 µM [inhibitor, single point] |
| COc1ccc(CCNC(=O)CSc2cn(CCNC(=O)c3ccc(OC)c(OC)c3)c3ccccc23)cc1OC |  | inconclusive: 35.5 µM [inhibitor, single point] |
| CCCCC1CC(C)(C(=O)CSc2nc3ccccc3s2)OC1=O (stereo not given) |  | inconclusive: 22.4 µM [inhibitor, partial curve, poor fit] |
| OCCC1CN(Cc2ccccc2OC2CCCC2)CCN1Cc1ccsc1 (stereo not given) |  | inconclusive: 35.5 µM [inhibitor, single point] |
| COc1cc(-c2ccc(NC(C)=O)c(OC)c2)ccc1NC(C)=O | inactive: -5.52% |  |
